# ± gives the standard deviation of the averaged measurements. Laboratory Escherichia coli strains with one amino-acid change in an essential protein, pooled on minimal glucose agar with carbenicillin or gentamicin at twice the control MIC (plus kanamycin and chloramphenicol for the plasmids), 48 h. Fold change of barcode share against drug-free plates; higher = less susceptible. Active = above 20 in both replicates (the paper's putatively resistant). '<' = one read or none on drug, '>' = one read or none on a drug-free plate. Shares are relative, so most strains fall below 1 when a few take over. Listed are strains with at least 15 reads on both drug-free plates, and hits; most hits rest on fewer reference reads. Replicate rank correlation about 0.5. Edits are read from barcodes.
# B1: yidC; numbered along this chain (parent)
# chain: MDSQRNLLVIALLFVSFMIWQAWEQDKNPQPQAQQTTQTTTTAAGSAADQGVPASGQGKLISVKTDVLDLTINTRGGDVEQALLPAYPKELNSTQPFQLLETSPQFIYQAQSGLTGRDGPDNPANGPRPLYNVEKDAYVLAEGQNELQVPMTYTDAAGNTFTKTFVLKRGDYAVNVNYNVQNAGEKPLEISSFGQLKQSITLPPHLDTGSSNFALHTFRGAAYSTPDEKYEKYKFDTIADNENLNISSKGGWVAMLQQYFATAWIPHNDGTNNFYTANLGNGIAAIGYKSQPVLVQPGQTGAMNSTLWVGPEIQDKMAAVAPHLDLTVDYGWLWFISQPLFKLLKWIHSFVGNWGFSIIIITFIVRGIMYPLTKAQYTSMAKMRMLQPKIQAMRERLGDDKQRISQEMMALYKAEKVNPLGGCFPLLIQMPIFLALYYMLMGSVELRQAPFALWIHDLSAQDPYYILPILMGVTMFFIQKMSPTTVTDPMQQKIMTFMPVIFTVFFLWFPSGLVLYYIVSNLVTIIQQQLIYRGLEKRGLHSREKKKS
# B2: metG; numbered along this chain (parent)
# chain: MTQVAKKILVTCALPYANGSIHLGHMLEHIQADVWVRYQRMRGHEVNFICADDAHGTPIMLKAQQLGITPEQMIGEMSQEHQTDFAGFNISYDNYHSTHSEENRQLSELIYSRLKENGFIKNRTISQLYDPEKGMFLPDRFVKGTCPKCKSPDQYGDNCEVCGATYSPTELIEPKSVVSGATPVMRDSEHFFFDLPSFSEMLQAWTRSGALQEQVANKMQEWFESGLQQWDISRDAPYFGFEIPNAPGKYFYVWLDAPIGYMGSFKNLCDKRGDSVSFDEYWKKDSTAELYHFIGKDIVYFHSLFWPAMLEGSNFRKPSNLFVHGYVTVNGAKMSKSRGTFIKASTWLNHFDADSLRYYYTAKLSSRIDDIDLNLEDFVQRVNADIVNKVVNLASRNAGFINKRFDGVLASELADPQLYKTFTDAAEVIGEAWESREFGKAVREIMALADLANRYVDEQAPWVVAKQEGRDADLQAICSMGINLFRVLMTYLKPVLPKLTERAEAFLNTELTWDGIQQPLLGHKVNPFKALYNRIDMRQVEALVEASKEEVKAAAAPVTGPLADDPIQETITFDDFAKVDLRVALIENAEFVEGSDKLLRLTLDLGGEKRNVFSGIRSAYPDPQALIGRHTIMVANLAPRKMRFGISEGMVMAAGPGGKDIFLLSPDAGAKPGHQVK
# Variants of: B1
# Experiment: barcode share on antibiotic plates over drug-free plates; higher = less susceptible
# Details: with Escherichia coli (laboratory strain); antibiotic: carbenicillin; 2× MIC (3.1 µg/mL)
# Experimental: (§1)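 A pool of E. coli strains, each edited to carry one amino-acid change in an essential protein, was grown for 48 h on minimal glucose agar with or without antibiotic; strain barcodes were sequenced; mean of two replicates.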
row,Variant,fold change of barcode share
1,I364W,0.273 ± 0.026
2,L436W,0.29 ± 0.075
3,L440P,0.218 ± 0.093
4,L440Q,0.29 ± 0.063
5,M471A,0.231 ± 0.065
6,M471D,0.349 ± 0.0077
7,M471P,0.397 ± 0.009
8,M471Q,0.288 ± 0.038
9,M471W,0.316 ± 0.2
10,V523A,0.25 ± 0.076
11,V523D,0.402 ± 0.049
12,V523P,0.288 ± 0.24
13,V523Q,0.387 ± 0.03
14,V523W,0.0731 ± 0.054

# Same assay, conditions: with Escherichia coli (laboratory strain); antibiotic: gentamicin; 2× MIC (MIC 0.45 µg/mL)
row,Variant,fold change of barcode share
1,I364W,< 0.00661
2,L436W,< 0.0115
3,L440P,< 0.0103
4,L440Q,0.0117 ± 0.012
5,M471A,0.00614 ± 0.0055
6,M471D,0.00204 ± 0.00091
7,M471P,0.00946 ± 0.004
8,M471Q,0.00503 ± 0.0038
9,M471W,0.00449 ± 0.0011
10,V523A,< 0.00739
11,V523D,< 0.0166
12,V523Q,< 0.0153
13,W346Q,0.00614 ± 0.0059
14,I361D,< 0.013
15,I361Q,< 0.0144
16,I361W,< 0.0175

# Variants of: B2
# Experiment: as above
# Details: with Escherichia coli (laboratory strain); antibiotic: carbenicillin; 2× MIC (3.1 µg/mL)
# Experimental: as §1
row,Variant,fold change of barcode share
1,L27A,0.133 ± 0.039
2,L27Q,0.284 ± 0.0087
3,W35A,0.371 ± 0.22
4,W35Q,0.333 ± 0.019
5,M219A,0.414 ± 0.13
6,M219D,0.247 ± 0.17
7,M219P,0.536 ± 0.26
8,M219Q,0.40937 ± 0.0002
9,W306A,2.34 ± 0.96
10,W306Q,9.85 ± 0.4
11,V323A,0.302 ± 0.042
12,V323P,0.556 ± 0.097
13,V323Q,1.24 ± 0.27
14,V382Q,0.178 ± 0.062

# Same assay, conditions: with Escherichia coli (laboratory strain); antibiotic: gentamicin; 2× MIC (MIC 0.45 µg/mL)
row,Variant,fold change of barcode share
1,L27A,0.0181 ± 0.0027
2,L27Q,< 0.0101
3,W35A,< 0.00515
4,W35Q,< 0.01
5,M219A,< 0.00708
6,M219D,< 0.00676
7,M219P,0.0136 ± 0.0026
8,M219Q,0.549 ± 0.77
9,V323A,< 0.0042
10,V323P,< 0.0116
11,V323Q,0.0244 ± 0.013
12,V382Q,0.0267 ± 0.018

# From the supplement of paper PMC11876631
